The source of these data is PMC5687670.

The chains behind the UniProt entries cited, without tags or fusion partners.
UniProt P42771: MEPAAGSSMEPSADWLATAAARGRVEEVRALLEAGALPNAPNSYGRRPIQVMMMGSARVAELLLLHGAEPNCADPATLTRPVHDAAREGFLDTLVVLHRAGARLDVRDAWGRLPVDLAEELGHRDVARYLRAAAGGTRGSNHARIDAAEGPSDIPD
UniProt O00506: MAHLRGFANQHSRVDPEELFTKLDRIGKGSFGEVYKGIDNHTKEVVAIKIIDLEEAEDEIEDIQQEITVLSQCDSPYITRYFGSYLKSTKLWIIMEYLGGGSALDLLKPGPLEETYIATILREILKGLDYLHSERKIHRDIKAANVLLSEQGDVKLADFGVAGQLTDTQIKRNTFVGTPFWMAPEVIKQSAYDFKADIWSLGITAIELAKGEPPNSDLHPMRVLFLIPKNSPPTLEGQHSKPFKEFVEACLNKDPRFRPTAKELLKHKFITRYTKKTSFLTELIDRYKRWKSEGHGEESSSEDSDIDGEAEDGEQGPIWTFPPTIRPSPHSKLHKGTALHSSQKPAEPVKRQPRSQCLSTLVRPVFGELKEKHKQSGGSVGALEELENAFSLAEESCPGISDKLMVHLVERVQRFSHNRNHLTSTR
UniProt P08047: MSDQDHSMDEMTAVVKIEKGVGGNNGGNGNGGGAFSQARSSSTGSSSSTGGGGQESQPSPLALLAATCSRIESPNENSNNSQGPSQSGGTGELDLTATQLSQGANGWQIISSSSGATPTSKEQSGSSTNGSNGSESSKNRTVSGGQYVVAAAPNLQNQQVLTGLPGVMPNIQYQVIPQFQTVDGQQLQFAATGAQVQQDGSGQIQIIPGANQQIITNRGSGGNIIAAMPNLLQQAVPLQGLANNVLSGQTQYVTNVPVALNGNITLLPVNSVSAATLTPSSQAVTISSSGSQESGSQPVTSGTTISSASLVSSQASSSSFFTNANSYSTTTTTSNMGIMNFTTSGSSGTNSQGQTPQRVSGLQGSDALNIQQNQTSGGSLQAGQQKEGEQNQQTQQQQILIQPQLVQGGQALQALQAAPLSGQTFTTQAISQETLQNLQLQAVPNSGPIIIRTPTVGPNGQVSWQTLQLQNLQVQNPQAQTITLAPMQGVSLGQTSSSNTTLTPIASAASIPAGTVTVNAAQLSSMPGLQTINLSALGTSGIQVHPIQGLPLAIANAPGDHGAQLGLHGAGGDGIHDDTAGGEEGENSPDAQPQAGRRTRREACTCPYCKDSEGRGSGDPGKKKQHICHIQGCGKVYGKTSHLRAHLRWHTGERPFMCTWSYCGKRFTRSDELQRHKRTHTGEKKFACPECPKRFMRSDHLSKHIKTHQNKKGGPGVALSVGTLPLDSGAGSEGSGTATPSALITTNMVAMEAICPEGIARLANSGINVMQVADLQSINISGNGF

No constants are given. Whether binding was seen depends on the method and setting. In cells and extracts the contact can be indirect. Some binding calls cover weakened binding; strength is not graded here.

In assay [1] the target is endogenous p16^INK4a (human (endogenous in SK-MEL-28)) (UniProt P42771). Description: co-IP; endogenous proteins, cells under hypoxia (1% O2); IP with anti-p16^INK4a, blot with anti-hYSK1 and anti-p16.
The target of assay [2] is GST-p16^INK4a (full length) (UniProt P42771). The assay is described as follows: pull-down; GST or GST fusion proteins on glutathione-Sepharose beads incubated 4 h at 4 °C with ^35S-Met-labeled in vitro translated proteins; washed thrice; SDS-PAGE, autoradiography; only the target purified.
For assay [3], the target named is V5-hYSK1 expressed in COS cells (pcDNA3.1-V5-hYSK1) (human) (UniProt O00506). The assay is described as follows: co-IP; told only in the discussion, no figure: cells transfected with either V5-hYSK1 or HA-SP-1; IP with anti-hYSK1 or anti-SP-1.
Assay [4] concerns the target p16^INK4a expressed in COS cells (pcDNA3.1-p16^INK4a) (UniProt P42771). Description: co-IP; COS-7 cells transfected with p16^INK4a and V5-CDK4 and/or V5-hYSK1 (hypoxia, 1% O2; Figure 4d) or with p16^INK4a, V5-hYSK1 or HA-SP-1 (Figure 5c); IP with anti-p16^INK4a, immunoblot; NET-NL lysis buffer, 150 mM NaCl, 0.01% NP-40, overnight at 4 °C.
For assay [5], the target named is V5-hYSK1 expressed in COS cells (pcDNA3.1-V5-hYSK1) (human) (UniProt O00506). The assay is described as follows: co-IP; COS-1 cells transfected with combinations of p16^INK4a, pcDNA3.1-V5-hYSK1 and pcDNA3.1-V5-CDK4; IP with anti-p16^INK4a or anti-hYSK1, blot with anti-V5 or anti-p16^INK4a.
Assay [6] addresses HA-SP-1 (UniProt P08047). Description: co-IP; told only in the discussion, no figure: cells transfected with either V5-hYSK1 or HA-SP-1; IP with anti-hYSK1 or anti-SP-1.
For assay [7], the target named is p16^INK4a expressed in COS cells (pcDNA3.1-p16^INK4a) (UniProt P42771). Description: co-IP; COS-1 cells transfected with combinations of p16^INK4a, pcDNA3.1-V5-hYSK1 and pcDNA3.1-V5-CDK4; IP with anti-p16^INK4a or anti-hYSK1, blot with anti-V5 or anti-p16^INK4a.

Consider “endogenous hYSK1 (from UniProt O00506 1-426)”, for which, in assay [1], the binding entry was “binds”.

“^35S-labeled hYSK1 (full length, in vitro translated) (from UniProt O00506 1-426)”: in assay [2], the binding result is recorded as “binds”.

Regarding HA-SP-1 (from UniProt P08047 1-785), the binding result in assay [3] is on record as “no binding”; in assay [4], “binds”.

For “p16^INK4a expressed in COS cells (pcDNA3.1-p16^INK4a) (from UniProt P42771 1-156)”, in assay [5], the binding result is “binds”.

“V5-hYSK1 expressed in COS cells (pcDNA3.1-V5-hYSK1) (from UniProt O00506 1-426)”: the figures for the binding entry in assay [6], in assay [7] and in assay [4] were “no binding”, “binds” and “binds”, respectively.
